Reference: the supplement of paper PMC4967469

Key:
[1] = compound: Nc1[nH]nc2nnc(-c3c(-c4ccccc4)nn4ccccc34)cc12 [FR-180204]; test: Viability of human cancer cell lines after 72 h of drug (GDSC screen); details: top dose 20 µM; top dose inferred
Method: (§1)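 Human cancer cell lines in 384-well plates, medium with 10% serum, drug for 72 h over a 256-fold dose range (nine 2-fold or five 4-fold steps up to the top dose). Adherent lines were fixed and stained with the nucleic acid dye Syto60, suspension lines read with resazurin; signal relative to control wells, capped at 0 and 100%. One two-parameter sigmoid per drug and line, fitted in a mixed model over all curves with the slope shared within a line.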

[2] = compound: O=C(/C=C/c1cccnc1)NCCCCC1CCN(C(=O)c2ccccc2)CC1 [FK866]; test: as above; details: top dose 1 µM; top dose inferred
Method: as §1

Cell Line | AUC [1] | IC50 [1] [nM] | AUC [2] | IC50 [2] [nM]
8-MG-BA (glioma, adherent) | 0.98 | > 20000 | 0.059 | < 3.91
22RV1 (prostate, adherent) | 0.916 | > 20000 | 0.685 | 236
42-MG-BA (glioma, adherent) | 0.97 | > 20000 | 0.125 | < 3.91
451Lu (melanoma, adherent) | 0.977 | > 20000 | 0.842 | 657
639-V (bladder, adherent) | 0.991 | > 20000 | 0.989 | > 1000
647-V (bladder, adherent) | 0.986 | > 20000 | 0.37 | 27.2
697 (lymphoblastic leukaemia, suspension) | 0.954 | > 20000 | 0.014 | < 3.91
769-P (kidney, adherent) | 0.978 | > 20000 | 0.433 | 40.3
786-0 (kidney, adherent) | 0.975 | > 20000 | 0.297 | 17.7
5637 (bladder, adherent) | 0.979 | > 20000 | 0.794 | 411
8305C (thyroid, adherent) | 0.954 | > 20000 | 0.972 | > 1000
8505C (thyroid, adherent) | 0.971 | > 20000 | 0.337 | 21.4
23132-87 (stomach, adherent) | 0.974 | > 20000 | 0.107 | < 3.91
A3-KAW (B-cell lymphoma, suspension) | 0.972 | > 20000 | 0.045 | < 3.91
A4-Fuk (B-cell lymphoma, suspension) | 0.986 | > 20000 | 0.104 | < 3.91
A101D (melanoma, adherent) | 0.959 | > 20000 | 0.714 | 293
A172 (glioma, adherent) | 0.977 | > 20000 | 0.104 | < 3.91
A204 (rhabdomyosarcoma, adherent) | 0.961 | > 20000 | 0.254 | 9.79
A253 (head and neck, adherent) | 0.988 | > 20000 | 0.432 | 41
A375 (melanoma, adherent) | 0.951 | > 20000 | 0.134 | 6.11
A388 (skin, adherent) | 0.981 | > 20000 | 0.832 | 778
A427 (non-small cell lung carcinoma, adherent) | 0.977 | > 20000 | 0.092 | < 3.91
A431 (skin, adherent) | 0.978 | > 20000 | 0.798 | 454
A498 (kidney, adherent) | 0.972 | > 20000 | 0.883 | > 1000
A673 (rhabdomyosarcoma, adherent) | 0.982 | > 20000 | 0.055 | < 3.91

Cell Line | AUC [1] | IC50 [1] [nM] | AUC [2] | IC50 [2] [nM]
A704 (kidney, adherent) | 0.984 | > 20000 | 0.811 | 511
ABC-1 (lung adenocarcinoma, adherent) | 0.959 | > 20000 | 0.969 | > 1000
ACHN (kidney, adherent) | 0.94 | > 20000 | 0.561 | 94.1
ALL-PO (lymphoblastic leukaemia, suspension) | 0.774 | 8300 | 0.13 | < 3.91
ALL-SIL (T-cell leukaemia, suspension) | 0.686 | 3800 | 0.023 | < 3.91
AM-38 (glioma, semi-adherent) | 0.912 | > 20000 | 0.176 | 6.39
AMO-1 (haematopoietic neoplasm, suspension) | 0.968 | > 20000 | 0.023 | < 3.91
AN3-CA (endometrium, adherent) | 0.982 | > 20000 | 0.274 | 13.3
ARH-77 (myeloma, suspension) | 0.981 | > 20000 | 0.216 | 9.57
IM-9 (myeloma, suspension) |  |  | 0.076 | < 3.91
IST-SL2 (small cell lung carcinoma, suspension) |  |  | 0.035 | < 3.91
JEKO-1 (B-cell lymphoma, suspension) |  |  | 0.025 | < 3.91
JHU-029 (head and neck, adherent) |  |  | 0.323 | 17.7
KARPAS-231 (B-cell leukaemia, suspension) |  |  | 0.021 | < 3.91
KARPAS-1106P (B-cell lymphoma, suspension) |  |  | 0.048 | < 3.91
KASUMI-1 (acute myeloid leukaemia, suspension) |  |  | 0.191 | 7.46
KATOIII (stomach, semi-adherent) |  |  | 0.062 | < 3.91
KNS-62 (lung squamous cell carcinoma, adherent) |  |  | 0.633 | 172
KP-1N (pancreas, adherent) |  |  | 0.243 | 10.9
LB647-SCLC (small cell lung carcinoma, semi-adherent) |  |  | 0.099 | < 3.91
MEL-HO (melanoma, adherent) |  |  | 0.469 | 51.3
MHH-CALL-2 (B-cell leukaemia, suspension) |  |  | 0.577 | 96.1
MKN7 (stomach, adherent) |  |  | 0.909 | > 1000
MOLM-16 (acute myeloid leukaemia, suspension) |  |  | 0.948 | > 1000
MOLT-16 (T-cell lymphoblastic leukaemia, suspension) |  |  | 0.016 | < 3.91

Cell Line | AUC [1] | IC50 [1] [nM] | AUC [2] | IC50 [2] [nM]
NCC010 (kidney, adherent) |  |  | 0.447 | 44.2
NCI-H146 (small cell lung carcinoma, suspension) |  |  | 0.097 | 4.66
NCI-H508 (large intestine, semi-adherent) |  |  | 0.918 | > 1000
NCI-H835 (lung carcinoid, suspension) |  |  | 0.2 | 8.58
NCI-H929 (myeloma, suspension) |  |  | 0.031 | < 3.91
NCI-H1105 (small cell lung carcinoma, suspension) |  |  | 0.272 | 16.2
NCI-H1341 (small cell lung carcinoma, suspension) |  |  | 0.395 | 33.6
NCI-H1650 (lung adenocarcinoma, adherent) |  |  | 0.806 | 714
NCI-H2066 (small cell lung carcinoma, adherent) |  |  | 0.975 | > 1000
NCI-N87 (stomach, adherent) |  |  | 0.723 | 363
PWR-1E (prostate, adherent) |  |  | 0.853 | 776
RCH-ACV (B-cell leukaemia, suspension) |  |  | 0.016 | < 3.91
RH-18 (rhabdomyosarcoma, adherent) |  |  | 0.884 | > 1000
SCC90 (head and neck, adherent) |  |  | 0.49 | 58.1
SK-GT-2 (stomach, adherent) |  |  | 0.984 | > 1000
SK-MEL-31 (melanoma, adherent) |  |  | 0.971 | > 1000
SKM-1 (haematopoietic neoplasm, suspension) |  |  | 0.075 | < 3.91
STS-0421 (soft tissue, adherent) |  |  | 0.817 | 683
SUP-B8 (B-cell leukaemia, suspension) |  |  | 0.974 | > 1000
TC-YIK (cervix, suspension) |  |  | 0.148 | 6.27
U-266 (myeloma, semi-adherent) |  |  | 0.818 | 841
VMRC-LCD (lung adenocarcinoma, adherent) |  |  | 0.737 | 258
ZR-75-30 (breast, adherent) |  |  | 0.981 | > 1000

The IC50 comes from the fitted curve, where viability falls to half of the control; a fit beyond the top or the lowest dose is shown as a bound at that dose. AUC sums up the same curve from the lowest dose to the 256-fold higher top dose; it is 1 without any effect and falls as sensitivity rises. An inferred top dose comes from the curve model; the source does not state it.
